Hit rate of the full screen: of about 310,000 compounds, about 18,000 (5.8%) were called active. The shares of active, inactive and inconclusive entries below differ from those in the screen. Calls follow the shape of the dose curve; as a rule, active = well fitted inhibition curve with a large enough effect; inconclusive = small, poorly fitted or top-dose-only effect, or another doubt; inactive = no such curve, though single readings can be large or run the other way. Potencies of inconclusive entries are left out as doubtful fits.
Test: Primary qHTS for delayed death inhibitors of the malarial parasite plastid, 48 hour incubation
Conditions: P. falciparum luciferase growth in erythrocytes; series mostly up to 28.7 µM
Procedure, shortened: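 Here the parasites carry a stable luciferase gene and grow inside erythrocytes in Albumax-based RPMI medium with compound for one erythrocytic cycle. Activity is scored as loss of luminescent signal.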
Potency is read from the fitted curve at half-maximal effect; tags tell the direction and shape of the fitted curve.

With CCCn1c(CCNc2nc(-c3ccc(Cl)c([N+](=O)[O-])c3)cs2)nc2cc(Cl)c(Cl)cc21 as the compound, how does the Potency read?
Its Potency is “inactive”.

Which Potency does the source give for Cc1ccc(Sc2ccc(NC(=O)CCl)cc2)cc1C here?
The Potency was active: 1.47 µM.

With Cn1c(SCC(=O)Nc2cc(Cl)cc(Cl)c2)nnc1-c1ccc2nonc2c1 as the compound, how does the Potency read?
The Potency was inconclusive [inhibitor, single point].

With CC(=O)c1ccc(NC(=S)Nc2ccn(Cc3ccc(Br)cc3)n2)cc1 as the compound, how does the Potency read?
The Potency was “inactive”.

Which Potency does the source give for O=C(OCCN1C(=O)c2ccccc2C1=O)c1cccc(OC(F)F)c1 here?
The Potency was “inactive”.

For Cc1nc2ccccc2c2c(N)c3ccccc3n12, which Potency is on record?
The Potency was inconclusive [inhibitor, partial curve].

Which Potency does the source give for COc1ccc(N(Cc2ccccc2)S(=O)(=O)c2ccc(C)cc2)cc1 here?
Its Potency is inconclusive [inhibitor, partial curve, poor fit].

With COc1ccc(C(=O)NCC(=O)N/N=C/c2ccc([N+](=O)[O-])o2)cc1OC as the compound, how does the Potency read?
The Potency was active: 6.57 µM.

With CC(OC(=O)c1ccccc1NS(=O)(=O)c1cccc(N)c1)C(=O)N(C)Cc1ccccc1 (configuration not stated) as the compound, how does the Potency read?
The Potency was inconclusive [inhibitor, single point].

Which Potency does the source give for CCCCn1nc2cc(C(=O)NCC3CC3)ccc2c1OCC here?
The Potency was inconclusive [inhibitor, single point].

With OCCOCCNc1ncnc2c1cnn2-c1ccccc1 as the compound, how does the Potency read?
Its Potency is active: 1.31 µM.

Which Potency does the source give for CCN(CC)CCCNC(=O)C1CCN(c2ncnc3c2sc2cccc(F)c23)CC1 here?
Its Potency is inconclusive [inhibitor, partial curve].

Which Potency does the source give for CC(C)OC(=O)c1nnn(-c2nonc2N)c1CN1CCc2ccccc2C1 here?
Its Potency is inconclusive [inhibitor, partial curve].

Which Potency does the source give for CCn1c(SCC(=O)N/N=C/C=C\c2ccccc2[N+](=O)[O-])nnc1-c1ccccc1 here?
The Potency was “inactive”.

Which Potency does the source give for CSc1nc(NCCCO)c2c3c(sc2n1)CN(C)CC3 here?
The Potency was inconclusive [inhibitor, single point].

Which Potency does the source give for CCCCNC(=S)N(Cc1ccco1)Cc1cc2cc3c(cc2[nH]c1=O)OCCO3 here?
Its Potency is inconclusive [inhibitor, single point].

For CC1C(=O)N2CCCc3cc(S(=O)(=O)Nc4ccccc4C(N)=O)cc1c32 (configuration not stated), which Potency is on record?
Its Potency is inconclusive [inhibitor, single point].

With CCN(CC(=O)Nc1ccccc1OC)C(=O)c1ccc(NS(=O)(=O)c2ccc(C(C)=O)cc2)cc1 as the compound, how does the Potency read?
The Potency was “inactive”.

For Cc1nc2ccccc2n1CC(=O)NCc1ccccc1, which Potency is on record?
Its Potency is “inactive”.

Which Potency does the source give for COCCNC(=O)[C@@]1(Cc2ccccc2)C=C[C@@H](C)N1C(C)=O here?
Its Potency is “inactive”.

With O=S(=O)(c1cc(F)ccc1F)N1CCC2(CC1)OCCN2S(=O)(=O)c1cccs1 as the compound, how does the Potency read?
Its Potency is inconclusive [inhibitor, partial curve, poor fit].

Which Potency does the source give for O=C1CC(C(=O)N2CCN(S(=O)(=O)c3cccc(F)c3)CC2)CN1Cc1ccccc1Cl (configuration not stated) here?
Its Potency is inconclusive [inhibitor, single point].

Which Potency does the source give for Cc1c(Cl)cccc1NC(=O)CNC(=O)CCS(=O)(=O)c1ccc(F)cc1 here?
Its Potency is “inactive”.

With Cc1cc(C)cc(OCCCOc2cccc3cccnc23)c1 as the compound, how does the Potency read?
The Potency was “inactive”.

With CCOC(=O)c1cc2c(C)n(-c3ccc(OCC)cc3)c(C)c2ccc1=O as the compound, how does the Potency read?
Its Potency is inconclusive [inhibitor, full curve].

With CCOc1ccc(C2CC(=O)n3nc(C45CC6CC(CC(C6)C4)C5)nc3S2)cc1OC (configuration not stated) as the compound, how does the Potency read?
Its Potency is “inactive”.

For Cn1nc(-c2ccccc2)cc1NC(=O)c1ccccc1, which Potency is on record?
Its Potency is “inactive”.

Which Potency does the source give for COc1ccc(CC(=O)OCC(=O)NCc2ccc(Cl)cc2)cc1 here?
The Potency was inconclusive [inhibitor, full curve, poor fit].

Which Potency does the source give for Cc1onc(-c2c(Cl)cccc2Cl)c1C(=O)N=S(C)(=O)c1ccccc1 (configuration not stated) here?
The Potency was inconclusive [inhibitor, partial curve, poor fit].

For C=CCSc1nc2sc3c(c2c(=O)n1CC)CCC3, which Potency is on record?
The Potency was “inactive”.

With CC1=CC(C)(C)N(C(=O)CSc2nnc(-c3ccccc3)o2)c2ccc(C)cc21 as the compound, how does the Potency read?
Its Potency is inconclusive [inhibitor, single point].

For Cc1cccc(N2CCN(Cc3cnc(Cl)s3)CC2C)c1 (configuration not stated), which Potency is on record?
Its Potency is inconclusive [inhibitor, single point].

Which Potency does the source give for COc1cc(N(C(=O)Cc2cccs2)C(C(=O)NC2CCCCC2)c2cccc(OC)c2OC)ccc1-n1cnnn1 (configuration not stated) here?
Its Potency is active: 10.4 µM.

For N#Cc1c(NC(=O)COC(=O)C2CC3C=CC2C3)oc(-c2ccccc2)c1-c1ccccc1 (configuration not stated), which Potency is on record?
Its Potency is “inactive”.

With Nc1c2c(nc3sc4c(c13)CCCCC4)CCCC2 as the compound, how does the Potency read?
Its Potency is inconclusive [inhibitor, single point].

For CC(C)NOC(=O)c1ccc(Cl)cc1, which Potency is on record?
The Potency was “inactive”.

With COc1ccc(CCNC(=O)c2cc3c(=O)n4ccccc4nc3n(CCCN3CCOCC3)c2=N)cc1OC as the compound, how does the Potency read?
The Potency was active: 2.33 µM.

For C=CCNC(=O)c1ccc(C(=O)c2ccccc2)cc1, which Potency is on record?
Its Potency is “inactive”.

Which Potency does the source give for O=C(COC(=O)c1cc([N+](=O)[O-])ccc1N1CCOCC1)c1ccccc1Cl here?
Its Potency is “inactive”.

With CC(C)=CCN1CCN(Cc2cnc(-c3ccccc3)s2)CC1CCO (configuration not stated) as the compound, how does the Potency read?
Its Potency is inconclusive [inhibitor, partial curve, poor fit].

Which Potency does the source give for CCOC(=O)C1CCN(C(=O)CCc2c(C)nc3cc(-c4ccc(OC)cc4OC)nn3c2C)CC1 here?
The Potency was active: 13.1 µM.

For CC1CCN(c2ccc3nnc(CCC(=O)NCC(C)c4ccccc4)n3n2)CC1 (configuration not stated), which Potency is on record?
The Potency was inconclusive [inhibitor, single point].

For COc1ccccc1N1CCN(C(=O)c2ccc3c(Cl)c4c(nc3c2)CCCC4)CC1, which Potency is on record?
The Potency was “inactive”.

With COc1ccc2c(c1OC)C(=O)N1C2SC(C)(C)[C@H]1C(=O)NCCCOC(C)C (some centres not stated) as the compound, how does the Potency read?
The Potency was inconclusive [inhibitor, partial curve, poor fit].

For CC(SCc1ccccc1)C(=O)N/N=C/c1ccc(OCC(=O)NCc2ccco2)cc1 (configuration not stated), which Potency is on record?
The Potency was “inactive”.

With CN1CCN(CCCNC(=O)c2ccc(/C=C3\Oc4ccccc4N(Cc4ccccc4F)C3=O)cc2)CC1 as the compound, how does the Potency read?
Its Potency is inconclusive [inhibitor, single point].

Which Potency does the source give for C[C@H](NC(=O)C(c1ccccc1)c1ccccc1)c1ccccc1 here?
The Potency was inconclusive [inhibitor, single point].

Source: PubChem BioAssay AID504832 (National Center for Advancing Translational Sciences (NCATS), 2011)
